From the supplement of paper PMC3334620 come the findings set out here.

The full ranking holds about 33,000 sequences; the median of “E-score (-0.5 to 0.5)” is about -0.01, and the highest 2% start at about 0.26. The list shows a part of the results.

For the assay, the target named is Ste12 (UniProt P13574). Briefly: PBM E-score (8-mer binding enrichment) (E-score (-0.5 to 0.5)); higher = stronger / more preferred TF binding; most listed sequences are background and not binding sites. The note with it: protein concentration: 200 nM; construct: GST-DNA-binding domain. Here is the method:
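Universal 'all 10-mer' protein binding microarrays (Agilent AMADID 015681) probed with GST-tagged S. cerevisiae TFs (full-length or DBD) made by in vitro transcription/translation (PURExpress), about 100-200 nM. Bound TF was detected with fluorescent anti-GST. Each ungapped 8-mer (which stands for itself and its reverse complement) is scored by the PBM enrichment score (E-score), a modified Wilcoxon-Mann-Whitney statistic from -0.5 to +0.5, computed with the Universal PBM Analysis Suite. Scale: above 0.35 generally sequence-specific binding.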
As for ACACTAAG, the “PBM E-score” value is -0.148. The figure for CACGCGTA is -0.187.

CTGTACCA: the “PBM E-score” value was -0.0689. AATGCTGC: the “PBM E-score” value was -0.15. The figure for ATGACGTG is -0.156.

Turning to ACGAAGCC, the “PBM E-score” value is -0.0351. As for GACCACGA, the figure is -0.163; as for AAACCGGC, 0.249. As for CCTATCAC, the figure is -0.128; as for GCTTGCAC, -0.00507; as for CGAGACGA, 0.0089. For GGCGCCCC, the “PBM E-score” value was determined as 0.00973.

As for ATTAGGCA, the “PBM E-score” value was -0.00086.

AGGAATAT: the “PBM E-score” value is 0.195. On to CATCGCGG, for which the “PBM E-score” value is -0.0392. Turning to ATGCCATG, the “PBM E-score” value was -0.0497.

TGCTGAAA: the “PBM E-score” value is 0.24. The figure for AGCGCATC is -0.0113; for AAATCACT it is 0.133; for CTGTCTCC it is -0.127. The figure for ACGCTCCT is -0.0731. Take TACAGGTA: the “PBM E-score” value was -0.0644. As for ATCTGGAG, the “PBM E-score” value is -0.0625.

Turning to TAGGTTGA, the “PBM E-score” value is 0.114. Take CCGTGTGC: the “PBM E-score” value is -0.104.

In the case of GCAAGACC, the “PBM E-score” value was -0.0946. With CCTTCGGC, the “PBM E-score” value was -0.129.

With CACATTGG, the “PBM E-score” value is -0.118. As for ATCAATCA, the figure is 0.203; as for CGGCTGAA, -0.0336. The figure for AGCGGCCG is -0.0286; for CGGCTTCC it is -0.116; for AACCCTCA it is 0.0136. In the case of GCGCTAGC, the “PBM E-score” value was -0.156. The figure for CGCAGCCC is -0.0745; for GGACAGCC it is 0.0251. Consider GGCCGACA, for which the “PBM E-score” value was -0.00431. The figure for GACCTATA is -0.0135. The figure for ACTGAACT is 0.0759; for AGGCTGCA it is -0.118; for AGTGCACT it is 0.0766. The figure for CAGGTTGC is 0.00307; for CCGGCTAG it is -0.236. Consider GGCCACCC, for which the “PBM E-score” value was -0.0512. For the sequence GGGAGAAA, the “PBM E-score” value amounted to 0.0409. On to GTGTATTA, for which the “PBM E-score” value was 0.25.

As to ACGTATTG, the “PBM E-score” value was -0.0942. The figure for GCACGGAC is -0.138; for TGCTTACA it is -0.0444; for ACGGTCTA it is -0.0856. As for GCTCCGGA, the figure is 0.158; as for CGCGTCTA, 0.0356. The figure for AGCAACAG is -0.05; for CACTGTAA it is 0.113; for CTGACACA it is 0.168. On to ATGTTCAG, for which the “PBM E-score” value is -0.132. As for ATAAGAAG, the figure is 0.158; as for ACAAGAGT, -0.0133; as for AGGTTCTA, 0.0347.

As for ATCCACGA, the “PBM E-score” value is -0.0201. For the sequence CAAGCAGC, the “PBM E-score” value is -0.072. As for GAGGGGGC, the figure is -0.26; as for ATACGCCC, -0.0463; as for CATTACTA, 0.00888. With CGATAGAA, the “PBM E-score” value was 0.0518. The figure for CTTGGCGC is 0.0285; for CATATTGG it is 0.0619; for AATAAAGC it is 0.132. As for GAAATCAA, the figure is 0.161. Take CAGTTCGC: the “PBM E-score” value was 0.0734.

As for GATCAGCA, the “PBM E-score” value was -0.0725. For the sequence TAAATCAA, the “PBM E-score” value was found to be 0.213.

As for AGGATCGG, the “PBM E-score” value is 0.00723. As to AGACCCGC, the “PBM E-score” value was 0.0866.

Consider ATGAGACG, for which the “PBM E-score” value worked out at 0.171.

On to TGAGCCCA, for which the “PBM E-score” value was -0.216. For the sequence ACAGAGGA, the “PBM E-score” value is -0.087.

Turning to ACGGATCG, the “PBM E-score” value was -0.0932. Take AGACCCCA: the “PBM E-score” value turned out to be 0.0579.

Turning to ACCGGAGG, the “PBM E-score” value is -0.0753. As for GAAAATAA, the figure is 0.216. In the case of CATTGCTC, the “PBM E-score” value is -0.175. On to ACCAGGTG, for which the “PBM E-score” value is -0.119. Take GAGACCCA: the “PBM E-score” value is -0.115.

As for AACTAAGC, the “PBM E-score” value was -0.0236. Consider GTTCATTA, for which the “PBM E-score” value was 0.0875. As to GTTTAGAA, the “PBM E-score” value is 0.26. The figure for CAGTCTTA is -0.0324.

GGCCCGCC: the “PBM E-score” value turned out to be 0.0329.

Consider ATCTGAGC, for which the “PBM E-score” value is 0.022. As for CTGAGATC, the “PBM E-score” value was -0.145. On to AGAAGGAC, for which the “PBM E-score” value is -0.222.

For GAAAACTC, the “PBM E-score” value was -0.0875. The figure for ATTCGTTC is 0.14.
